# Reference: the supplement of paper PMC4967469
# Compound: CCOc1cc2ncc(C#N)c(Nc3ccc(F)c(Cl)c3)c2cc1NC(=O)/C=C/CN(C)C [EKB-569]
# Experiment: Viability of human cancer cell lines after 72 h of drug (GDSC screen)
# Settings: top dose inferred
# Method: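 Human cancer cell lines in 384-well plates, medium with 10% serum, drug for 72 h over a 256-fold dose range (nine 2-fold or five 4-fold steps up to the top dose). Adherent lines were fixed and stained with the nucleic acid dye Syto60, suspension lines read with resazurin; signal relative to control wells, capped at 0 and 100%. One two-parameter sigmoid per drug and line, fitted in a mixed model over all curves with the slope shared within a line.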
cell line,measurement,value
"G-292 Clone A141B1 (osteosarcoma, adherent, top dose 2.5 µM)",AUC,0.944
same,IC50,> 2500 nM
"G-361 (melanoma, adherent, top dose 2.5 µM)",AUC,0.896
same,IC50,> 2500 nM
"G-401 (kidney, adherent, top dose 2.5 µM)",AUC,0.88
same,IC50,> 2500 nM
"G-402 (soft tissue, adherent, top dose 2.5 µM)",AUC,0.918
same,IC50,> 2500 nM
"G-MEL (melanoma, adherent, top dose 2.5 µM)",AUC,0.876
same,IC50,2420 nM
"GAMG (glioma, adherent, top dose 2.5 µM)",AUC,0.899
same,IC50,> 2500 nM
"GB-1 (glioma, adherent, top dose 2.5 µM)",AUC,0.937
same,IC50,> 2500 nM
"GCIY (stomach, adherent, top dose 2.5 µM)",AUC,0.792
same,IC50,1300 nM
"GCT (soft tissue, adherent, top dose 2.5 µM)",AUC,0.989
same,IC50,> 2500 nM
"GDM-1 (acute myeloid leukaemia, suspension, top dose 2.5 µM)",AUC,0.458
same,IC50,120 nM
"GI-1 (glioma, adherent, top dose 2.5 µM)",AUC,0.95
same,IC50,> 2500 nM
"GI-ME-N (neuroblastoma, adherent, top dose 2.5 µM)",AUC,0.875
same,IC50,> 2500 nM
"GMS-10 (glioma, adherent, top dose 2.5 µM)",AUC,0.988
same,IC50,> 2500 nM
"GOTO (neuroblastoma, adherent, top dose 2.5 µM)",AUC,0.955
same,IC50,> 2500 nM
"GP5d (large intestine, adherent, top dose 2.5 µM)",AUC,0.818
same,IC50,1220 nM
"GR-ST (lymphoblastic leukaemia, suspension, top dose 2.5 µM)",AUC,0.866
same,IC50,> 2500 nM
"GRANTA-519 (B-cell lymphoma, suspension, top dose 2.5 µM)",AUC,0.957
same,IC50,> 2500 nM
"GT3TKB (stomach, adherent, top dose 2.5 µM)",AUC,0.986
same,IC50,> 2500 nM
"H4 (glioma, adherent, top dose 2.5 µM)",AUC,0.914
same,IC50,> 2500 nM
"H9 (lymphoid neoplasm, suspension, top dose 2.5 µM)",AUC,0.943
same,IC50,> 2500 nM
"H290 (mesothelioma, adherent, top dose 2.5 µM)",AUC,0.978
same,IC50,> 2500 nM
"H513 (mesothelioma, semi-adherent, top dose 2.5 µM)",AUC,0.815
same,IC50,1760 nM
"H2369 (mesothelioma, adherent, top dose 2.5 µM)",AUC,0.97
same,IC50,> 2500 nM
"H2373 (mesothelioma, adherent, top dose 2.5 µM)",AUC,0.982
same,IC50,> 2500 nM
"H2461 (mesothelioma, adherent, top dose 2.5 µM)",AUC,0.983
same,IC50,> 2500 nM
"H2591 (mesothelioma, adherent, top dose 2.5 µM)",AUC,0.97
same,IC50,> 2500 nM
"H2595 (mesothelioma, adherent, top dose 2.5 µM)",AUC,0.967
same,IC50,> 2500 nM
"H2722 (mesothelioma, adherent, top dose 2.5 µM)",AUC,0.961
same,IC50,> 2500 nM
"H2731 (mesothelioma, adherent, top dose 2.5 µM)",AUC,0.954
same,IC50,> 2500 nM
"H2795 (mesothelioma, adherent, top dose 2.5 µM)",AUC,0.869
same,IC50,2240 nM
"H2803 (mesothelioma, adherent, top dose 2.5 µM)",AUC,0.974
same,IC50,> 2500 nM
"H2804 (mesothelioma, adherent, top dose 2.5 µM)",AUC,0.986
same,IC50,> 2500 nM
"H2818 (mesothelioma, adherent, top dose 2.5 µM)",AUC,0.986
same,IC50,> 2500 nM
"H2869 (mesothelioma, adherent, top dose 2.5 µM)",AUC,0.883
same,IC50,> 2500 nM
"H3118 (head and neck, adherent, top dose 2.5 µM)",AUC,0.356
same,IC50,60.1 nM
"H3255 (lung adenocarcinoma, adherent, top dose 2.5 µM)",AUC,0.339
same,IC50,50.8 nM
"H-EMC-SS (chondrosarcoma, adherent, top dose 2.5 µM)",AUC,0.942
same,IC50,> 2500 nM
"HA7-RCC (kidney, adherent, top dose 2.5 µM)",AUC,0.916
same,IC50,> 2500 nM
"HAL-01 (lymphoblastic leukaemia, suspension, top dose 2.5 µM)",AUC,0.5
same,IC50,157 nM
"HARA (lung squamous cell carcinoma, adherent, top dose 2.5 µM)",AUC,0.782
same,IC50,1230 nM
"HC-1 (hairy cell leukaemia, suspension, top dose 2.5 µM)",AUC,0.585
same,IC50,264 nM
"HCC38 (breast, adherent, top dose 2.5 µM)",AUC,0.901
same,IC50,> 2500 nM
"HCC70 (breast, adherent, top dose 2.5 µM)",AUC,0.976
same,IC50,> 2500 nM
"HCC1143 (breast, adherent, top dose 2.5 µM)",AUC,0.845
same,IC50,> 2500 nM
"HCC1187 (breast, suspension, top dose 2.5 µM)",AUC,0.883
same,IC50,2460 nM
"HCC1395 (breast, adherent, top dose 20 µM)",AUC,0.892
same,IC50,> 20000 nM
"HCC1419 (breast, adherent, top dose 2.5 µM)",AUC,0.658
same,IC50,516 nM
"HCC1428 (breast, adherent, top dose 2.5 µM)",AUC,0.967
same,IC50,> 2500 nM
"HCC1500 (breast, adherent, top dose 2.5 µM)",AUC,0.926
same,IC50,> 2500 nM
"HCC1569 (breast, adherent, top dose 2.5 µM)",AUC,0.843
same,IC50,> 2500 nM
"HCC1599 (breast, suspension, top dose 20 µM)",AUC,0.397
same,IC50,626 nM
"HCC1806 (breast, adherent, top dose 2.5 µM)",AUC,0.829
same,IC50,1380 nM
"HCC1937 (breast, adherent, top dose 2.5 µM)",AUC,0.883
same,IC50,> 2500 nM
"HCC1954 (breast, adherent, top dose 2.5 µM)",AUC,0.756
same,IC50,987 nM
"HCC2157 (breast, suspension, top dose 2.5 µM)",AUC,0.987
same,IC50,> 2500 nM
"HCC2998 (large intestine, adherent, top dose 20 µM)",AUC,0.809
same,IC50,10100 nM
"HCC-15 (lung squamous cell carcinoma, adherent, top dose 2.5 µM)",AUC,0.948
same,IC50,> 2500 nM
"HCC-33 (small cell lung carcinoma, adherent, top dose 2.5 µM)",AUC,0.927
same,IC50,> 2500 nM
"HCC-44 (lung adenocarcinoma, adherent, top dose 2.5 µM)",AUC,0.928
same,IC50,> 2500 nM
"HCC-56 (large intestine, adherent, top dose 2.5 µM)",AUC,0.815
same,IC50,1420 nM
"HCC-78 (lung adenocarcinoma, adherent, top dose 2.5 µM)",AUC,0.865
same,IC50,> 2500 nM
"HCC-827 (lung adenocarcinoma, adherent, top dose 2.5 µM)",AUC,0.282
same,IC50,34 nM
"HCE-4 (oesophagus, adherent, top dose 2.5 µM)",AUC,0.988
same,IC50,> 2500 nM
"HCT-15 (large intestine, adherent, top dose 2.5 µM)",AUC,0.883
same,IC50,> 2500 nM
"HCT-116 (large intestine, adherent, top dose 2.5 µM)",AUC,0.762
same,IC50,854 nM
"HD-MY-Z (Hodgkin lymphoma, adherent, top dose 2.5 µM)",AUC,0.768
same,IC50,938 nM
"HDLM-2 (Hodgkin lymphoma, suspension, top dose 2.5 µM)",AUC,0.987
same,IC50,> 2500 nM
"HDQ-P1 (breast, adherent, top dose 2.5 µM)",AUC,0.952
same,IC50,> 2500 nM
"HEC-1 (endometrium, adherent, top dose 2.5 µM)",AUC,0.981
same,IC50,> 2500 nM
"HEL (acute myeloid leukaemia, semi-adherent, top dose 2.5 µM)",AUC,0.395
same,IC50,84.6 nM
"HGC-27 (stomach, adherent, top dose 2.5 µM)",AUC,0.973
same,IC50,> 2500 nM
"HH (T-cell leukaemia, suspension, top dose 2.5 µM)",AUC,0.826
same,IC50,2250 nM
"HL-60 (acute myeloid leukaemia, suspension, top dose 2.5 µM)",AUC,0.842
same,IC50,1500 nM
"HLE (liver, adherent, top dose 2.5 µM)",AUC,0.919
same,IC50,> 2500 nM
"HMV-II (melanoma, adherent, top dose 2.5 µM)",AUC,0.915
same,IC50,> 2500 nM
"HN (head and neck, adherent, top dose 2.5 µM)",AUC,0.977
same,IC50,> 2500 nM
"HO-1-N-1 (head and neck, adherent, top dose 2.5 µM)",AUC,0.952
same,IC50,> 2500 nM
"HO-1-u-1 (head and neck, adherent, top dose 2.5 µM)",AUC,0.96
same,IC50,> 2500 nM
"HOP-62 (lung adenocarcinoma, adherent, top dose 2.5 µM)",AUC,0.908
same,IC50,> 2500 nM
"HOP-92 (large cell lung carcinoma, adherent, top dose 2.5 µM)",AUC,0.981
same,IC50,> 2500 nM
"HOS (osteosarcoma, adherent, top dose 2.5 µM)",AUC,0.988
same,IC50,> 2500 nM
"HPAC (pancreas, adherent, top dose 2.5 µM)",AUC,0.69
same,IC50,668 nM

# IC50 is the fitted dose that halves viability relative to control wells, and lower means more sensitive; fits outside the tested doses are given as limits. The AUC spans the tested range (256-fold, ending at the top dose) of the same fit; it is 1 without any effect and falls as sensitivity rises. The top dose, if marked as inferred, is not printed in the source and was worked back from the curve model.
